Results on one compound are retold here after US20170137417A1 (priority 2014, published 2017).

For the series the following is noted: Log P, [b] LC-UV, neutral range, 0.001 molar ammonium acetate solution in water and acetonitrile as eluent.

On to `C#CCOc1ccc(F)c(F)c1C1CC(c2csc(C3CCN(C(=O)Nc4cc(C)ccc4C)CC3)n2)=NO1` (stereo not shown) [Example I-3], for which the chromatographic logP (usually lipophilicity estimated from chromatographic retention) was found to be 3.35.
